# According to patent US20230203098A1, “HUMAN TRANSFERRIN RECEPTOR BINDING PEPTIDE” (priority 2020, published 2023):
# Part of at least one peptide drawing is inferred or uncertain, most often the ends. At least one structure is not confirmed: it was looked up by name or label, or the drawing left a doubt. Where a SMILES comes first, the peptide text is derived from it. Bridges are numbered along the chain shown (N, C = ends). [ ]: non-standard residue; d: D form. Trp(1-CH2COOH) = N[C@@H](Cc1cn(CC(=O)O)c2ccccc12)C(=O)O; NMePhe(3-Cl) = CN[C@@H](Cc1cccc(Cl)c1)C(=O)O; NMeW = CN[C@@H](Cc1c[nH]c2ccccc12)C(=O)O; Phe(3-Cl) = N[C@@H](Cc1cccc(Cl)c1)C(=O)O; Phe(4-Cl) = N[C@@H](Cc1ccc(Cl)cc1)C(=O)O; NMeY = CN[C@@H](Cc1ccc(O)cc1)C(=O)O
# Target: transferrin receptor (hTfR) (Homo sapiens, UniProt P02786)
# Assay: Intermolecular interaction evaluation test between transferrin receptor (hTfR) and peptide by surface plasmon resonance (SPR)
# Format: binding
# Conditions: SPR, hTfR; class symbols A-D; read-out: KD
# How it was run: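 hTfR captured on Ni-NTA chip then amine-coupled; peptides run single-cycle kinetics at 5–100 nM in 10 mM HEPES pH 8.0, 150 mM NaCl, 0.05% Tween 20, 0.1% BSA, 1.0% DMSO. KD from least-squares curve fitting of sensorgrams.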
# Sequence of transferrin receptor (hTfR) (P02786 whole entry): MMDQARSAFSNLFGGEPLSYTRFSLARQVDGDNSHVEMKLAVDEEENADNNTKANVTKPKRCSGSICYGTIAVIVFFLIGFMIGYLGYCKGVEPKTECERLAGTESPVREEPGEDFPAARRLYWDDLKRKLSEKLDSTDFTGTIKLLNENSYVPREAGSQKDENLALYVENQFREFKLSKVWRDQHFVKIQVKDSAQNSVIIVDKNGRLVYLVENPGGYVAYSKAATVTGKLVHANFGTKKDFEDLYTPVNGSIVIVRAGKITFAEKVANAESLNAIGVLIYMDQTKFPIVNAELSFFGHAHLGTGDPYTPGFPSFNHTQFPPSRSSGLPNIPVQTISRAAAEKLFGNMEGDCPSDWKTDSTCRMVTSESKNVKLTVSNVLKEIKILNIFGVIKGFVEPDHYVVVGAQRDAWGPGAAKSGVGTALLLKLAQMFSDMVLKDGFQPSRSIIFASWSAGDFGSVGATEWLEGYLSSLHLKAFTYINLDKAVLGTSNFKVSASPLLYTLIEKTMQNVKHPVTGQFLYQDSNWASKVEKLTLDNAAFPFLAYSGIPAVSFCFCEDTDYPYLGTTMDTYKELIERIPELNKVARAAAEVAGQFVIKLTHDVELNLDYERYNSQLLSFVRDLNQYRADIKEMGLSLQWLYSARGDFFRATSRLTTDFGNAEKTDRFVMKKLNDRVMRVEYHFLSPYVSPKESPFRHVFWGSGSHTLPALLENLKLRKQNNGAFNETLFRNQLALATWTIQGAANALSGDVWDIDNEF
row,SMILES,Kd [nM]
1,CC[C@H](C)[C@@H]1NC(=O)[C@H](Cc2ccc(Cl)cc2)NC(=O)[C@H](Cc2ccc(O)cc2)NC(=O)[C@H](CC(N)=O)NC(=O)[C@H](Cc2c[nH]c3ccccc23)N(C)C(=O)[C@H](C(C)C)NC(=O)[C@H](Cc2cccc(Cl)c2)N(C)C(=O)[C@H](C(C)C)NC(=O)[C@H](C)NC(=O)CSC[C@@H](C(N)=O)NC(=O)[C@H](Cc2ccc(O)cc2)N(C)C(=O)[C@H](Cc2ccccc2)NC(=O)[C@@H](CCCNC(=N)N)NC(=O)[C@H](CCCNC(=N)N)NC(=O)[C@H]([C@@H](C)CC)NC1=O [compound 465] ({CH2CO}-AV[NMePhe(3-Cl)]V[NMeW]NY[Phe(4-Cl)]IIR[dR]F[NMeY]C-NH2; thioether N-15),100 to 1000
2,CC[C@H](C)[C@@H]1NC(=O)[C@H](Cc2cccc(Cl)c2)NC(=O)[C@H](Cc2ccc(O)cc2)NC(=O)[C@H](CC(N)=O)NC(=O)[C@H](Cc2c[nH]c3ccccc23)N(C)C(=O)[C@H](C(C)C)NC(=O)[C@H](Cc2cccc(Cl)c2)N(C)C(=O)[C@H](C(C)C)NC(=O)[C@H](C)NC(=O)CSC[C@@H](C(N)=O)NC(=O)[C@H](Cc2ccc(O)cc2)N(C)C(=O)[C@H](Cc2ccccc2)NC(=O)[C@@H](CCCNC(=N)N)NC(=O)[C@H](CCCNC(=N)N)NC(=O)[C@H]([C@@H](C)CC)NC1=O [compound 466] ({CH2CO}-AV[NMePhe(3-Cl)]V[NMeW]NY[Phe(3-Cl)]IIR[dR]F[NMeY]C-NH2; thioether N-15),1 to 100
3,CC[C@H](C)[C@@H]1NC(=O)[C@H](Cc2ccc(OC)cc2)NC(=O)[C@H](Cc2ccc(O)cc2)NC(=O)[C@H](CC(N)=O)NC(=O)[C@H](Cc2cn(CC(=O)O)c3ccccc23)NC(=O)[C@H](C(C)C)NC(=O)[C@H](Cc2cccc(Cl)c2)N(C)C(=O)[C@H](C(C)C)NC(=O)[C@H](C)NC(=O)CSC[C@@H](C(=O)N[C@H](CCC(=O)O)C(N)=O)NC(=O)[C@H](Cc2ccc(O)cc2)N(C)C(=O)[C@H](Cc2ccccc2)NC(=O)[C@H](CCCNC(=N)N)NC(=O)[C@H](CCCCN)NC(=O)[C@H](CCC(=O)O)NC1=O [compound 470] ({CH2CO}-AV[NMePhe(3-Cl)]V[Trp(1-CH2COOH)]NYY(Me)IEKRF[NMeY]C[dE]-NH2; thioether N-15),1 to 100
4,CC[C@H](C)[C@@H]1NC(=O)[C@H](Cc2ccc(OC)cc2)NC(=O)[C@H](Cc2ccc(O)cc2)NC(=O)[C@H](CC(N)=O)NC(=O)[C@H](Cc2cn(CC(=O)O)c3ccccc23)NC(=O)[C@H](C(C)C)NC(=O)[C@H](Cc2cccc(Cl)c2)N(C)C(=O)[C@H](C(C)C)NC(=O)[C@H](C)NC(=O)CSC[C@@H](C(=O)N[C@H](CCC(=O)O)C(N)=O)NC(=O)[C@H](Cc2ccc(O)cc2)N(C)C(=O)[C@H](Cc2ccccc2)NC(=O)[C@H](CCCNC(=N)N)NC(=O)[C@H](CCCNC(=N)N)NC(=O)[C@H](CCC(=O)O)NC1=O [compound 471],1 to 100
5,CC[C@H](C)[C@@H]1NC(=O)[C@H](Cc2ccc(OC)cc2)NC(=O)[C@H](Cc2ccc(O)cc2)NC(=O)[C@H](CC(N)=O)NC(=O)[C@H](Cc2cn(CC(=O)O)c3ccccc23)NC(=O)[C@H](C(C)C)NC(=O)[C@H](Cc2cccc(Cl)c2)N(C)C(=O)[C@H](C(C)C)NC(=O)[C@H](C)NC(=O)CSC[C@@H](C(=O)N[C@H](CCC(=O)O)C(N)=O)NC(=O)[C@H](Cc2ccc(O)cc2)N(C)C(=O)[C@H](Cc2ccccc2)NC(=O)[C@@H](CCCNC(=N)N)NC(=O)[C@H](CCCNC(=N)N)NC(=O)[C@H](CCC(=O)O)NC1=O [compound 472],1 to 100

# Continued, values first:
row,Kd [nM],SMILES
1,1 to 100,CC[C@H](C)[C@@H]1NC(=O)[C@H](Cc2ccc(O)cc2)NC(=O)[C@H](Cc2ccc(O)cc2)NC(=O)[C@H](CC(N)=O)NC(=O)[C@H](Cc2c[nH]c3ccc(Cl)cc23)NC(=O)[C@H](C(C)C)NC(=O)[C@H](Cc2ccc(F)cc2)N(C)C(=O)[C@H](C(C)C)NC(=O)[C@H](C)NC(=O)CSC[C@@H](C(=O)NCCOCCOCCOCCOCCC(N)=O)NC(=O)[C@H](Cc2ccc(O)cc2)N(C)C(=O)[C@H](Cc2ccccc2)NC(=O)[C@H](CCCNC(=N)N)NC(=O)[C@H](CCCNC(=N)N)NC(=O)[C@H]([C@@H](C)CC)NC1=O [compound 478]
2,1 to 100,CC[C@H](C)[C@@H]1NC(=O)[C@H](Cc2ccc(OC)cc2)NC(=O)[C@H](Cc2ccc(O)cc2)NC(=O)[C@H](CC(N)=O)NC(=O)[C@H](Cc2c[nH]c3ccc(Cl)cc23)NC(=O)[C@H](C(C)C)NC(=O)[C@H](Cc2ccc(F)cc2)N(C)C(=O)[C@H](C(C)C)NC(=O)[C@H](C)NC(=O)CSC[C@@H](C(=O)NCCOCCOCCOCCOCCC(N)=O)NC(=O)[C@H](Cc2ccc(O)cc2)N(C)C(=O)[C@H](Cc2ccccc2)NC(=O)[C@H](CCCNC(=N)N)NC(=O)[C@H](CCCNC(=N)N)NC(=O)[C@H]([C@@H](C)CC)NC1=O [compound 479]

# Same assay, conditions: SPR, hTfR; class symbols A-D; read-out: KD (column without head, continuation of the table series)
row,SMILES,Kd [nM]
1,CC[C@H](C)[C@@H]1NC(=O)[C@H](Cc2ccc(O)cc2)NC(=O)[C@H](Cc2ccc(O)cc2)NC(=O)[C@H](CC(N)=O)NC(=O)[C@H](Cc2cn(CC(=O)O)c3ccccc23)NC(=O)[C@H](C(C)C)NC(=O)[C@H](Cc2ccccc2)N(C)C(=O)[C@H](C(C)C)NC(=O)[C@H](C)NC(=O)CSC[C@@H](C(=O)NCC(=O)N[C@H](CCC(=O)O)C(=O)N[C@H](CCC(=O)O)C(=O)N[C@H](CCC(=O)O)C(=O)N[C@@H](CO)C(=O)N[C@@H](CO)C(=O)N[C@@H](CS)C(N)=O)NC(=O)[C@H](Cc2ccc(O)cc2)N(C)C(=O)[C@H](Cc2ccc(O)cc2)NC(=O)[C@H](CCCNC(=N)N)NC(=O)[C@H](CCCNC(=N)N)NC(=O)[C@H]([C@@H](C)CC)NC1=O [compound 495],1 to 100
2,CC[C@H](C)[C@@H]1NC(=O)[C@H](Cc2ccc(OCC(=O)O)cc2)NC(=O)[C@H](Cc2ccc(O)cc2)NC(=O)[C@H](CC(N)=O)NC(=O)[C@H](Cc2c[nH]c3ccccc23)NC(=O)[C@H](C(C)C)NC(=O)[C@H](Cc2ccccc2)N(C)C(=O)[C@H](C(C)C)NC(=O)[C@H](C)NC(=O)CSC[C@@H](C(=O)NCC(=O)N[C@H](CCC(=O)O)C(=O)N[C@H](CCC(=O)O)C(=O)N[C@H](CCC(=O)O)C(=O)N[C@@H](CO)C(=O)N[C@@H](CO)C(=O)N[C@@H](CS)C(N)=O)NC(=O)[C@H](Cc2ccc(O)cc2)N(C)C(=O)[C@H](Cc2ccc(O)cc2)NC(=O)[C@H](CCCNC(=N)N)NC(=O)[C@H](CCCNC(=N)N)NC(=O)[C@H]([C@@H](C)CC)NC1=O [compound 496],1 to 100
3,CC[C@H](C)[C@@H]1NC(=O)[C@H](Cc2ccc(OCC(=O)O)cc2)NC(=O)[C@H](Cc2ccc(O)cc2)NC(=O)[C@H](CC(N)=O)NC(=O)[C@H](Cc2cn(CC(=O)O)c3ccccc23)NC(=O)[C@H](C(C)C)NC(=O)[C@H](Cc2ccccc2)N(C)C(=O)[C@H](C(C)C)NC(=O)[C@H](C)NC(=O)CSC[C@@H](C(=O)NCC(=O)N[C@H](CCC(=O)O)C(=O)N[C@H](CCC(=O)O)C(=O)N[C@H](CCC(=O)O)C(=O)N[C@@H](CO)C(=O)N[C@@H](CO)C(=O)N[C@@H](CS)C(N)=O)NC(=O)[C@H](Cc2ccc(O)cc2)N(C)C(=O)[C@H](Cc2ccc(O)cc2)NC(=O)[C@H](CCCNC(=N)N)NC(=O)[C@H](CCCNC(=N)N)NC(=O)[C@H]([C@@H](C)CC)NC1=O [compound 497],1 to 100
4,CC[C@H](C)[C@@H]1NC(=O)[C@H](Cc2ccc(O)cc2)NC(=O)[C@H](Cc2ccc(O)cc2)NC(=O)[C@H](CC(N)=O)NC(=O)[C@H](Cc2c[nH]c3ccccc23)NC(=O)[C@H](C(C)C)NC(=O)[C@H](Cc2ccccc2)N(C)C(=O)[C@H](C(C)C)NC(=O)[C@H](C)NC(=O)CSC[C@@H](C(=O)NCC(=O)NCCOCCOCCOCCOCCC(=O)N[C@@H](CCCCN=[N+]=[N-])C(N)=O)NC(=O)[C@H](Cc2ccc(O)cc2)N(C)C(=O)[C@H](Cc2ccc(O)cc2)NC(=O)[C@H](CCCNC(=N)N)NC(=O)[C@H](CCCNC(=N)N)NC(=O)[C@H]([C@@H](C)CC)NC1=O [compound 499],1 to 100
